# Experimental data reported in paper PMC4336329 (PLoS ONE, 2015).
# Hit rate of the full screen: of about 310,000 compounds, about 2,200 (0.71%) showed an effect of 50% or more. The effect is printed as a negative number. The list shows a part of the results.
# Target: human ether-à-go-go-related gene (hERG) potassium channel (human, UniProt Q12809)
# Assay: primary screen, population patch clamp on CHO cells stably expressing hERG
# human ether-à-go-go-related gene (hERG) potassium channel, sequence (Q12809 whole entry, looked up): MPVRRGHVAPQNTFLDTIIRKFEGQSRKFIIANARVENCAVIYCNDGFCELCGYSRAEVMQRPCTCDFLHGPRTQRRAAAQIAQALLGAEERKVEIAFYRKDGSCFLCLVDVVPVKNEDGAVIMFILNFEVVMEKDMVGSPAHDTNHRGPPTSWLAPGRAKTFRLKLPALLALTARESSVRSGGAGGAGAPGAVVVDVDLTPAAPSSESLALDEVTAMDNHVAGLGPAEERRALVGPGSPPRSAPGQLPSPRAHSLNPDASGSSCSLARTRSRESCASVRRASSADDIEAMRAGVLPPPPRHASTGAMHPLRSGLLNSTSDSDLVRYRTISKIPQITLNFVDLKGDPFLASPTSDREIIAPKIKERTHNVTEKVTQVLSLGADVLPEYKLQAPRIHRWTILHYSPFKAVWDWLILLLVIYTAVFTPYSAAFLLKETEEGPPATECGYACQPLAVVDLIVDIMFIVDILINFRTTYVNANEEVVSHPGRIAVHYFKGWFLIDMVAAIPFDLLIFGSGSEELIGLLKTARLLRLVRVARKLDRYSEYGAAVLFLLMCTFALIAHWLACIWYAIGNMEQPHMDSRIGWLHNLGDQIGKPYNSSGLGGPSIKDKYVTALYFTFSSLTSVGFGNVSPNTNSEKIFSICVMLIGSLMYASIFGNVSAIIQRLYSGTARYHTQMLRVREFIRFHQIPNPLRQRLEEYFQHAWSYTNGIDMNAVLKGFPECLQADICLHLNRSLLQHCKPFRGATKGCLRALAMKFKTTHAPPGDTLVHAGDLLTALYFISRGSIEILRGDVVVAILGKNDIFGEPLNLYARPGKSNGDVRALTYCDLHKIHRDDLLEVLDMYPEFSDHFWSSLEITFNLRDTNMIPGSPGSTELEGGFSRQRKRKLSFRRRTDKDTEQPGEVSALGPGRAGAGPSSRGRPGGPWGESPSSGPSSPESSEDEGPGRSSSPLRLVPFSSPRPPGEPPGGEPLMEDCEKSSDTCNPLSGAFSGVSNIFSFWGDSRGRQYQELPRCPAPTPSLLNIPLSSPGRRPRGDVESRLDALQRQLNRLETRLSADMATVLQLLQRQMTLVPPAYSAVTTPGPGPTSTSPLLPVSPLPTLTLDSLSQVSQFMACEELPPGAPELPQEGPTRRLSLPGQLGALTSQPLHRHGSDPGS
row,Structure (SMILES),"hERG current change (%, negative = inhibition) at 1uM [%]"
1,O=C(Cc1ccccc1)NNC(=S)Nc1ccc(Cl)cc1,10.8
2,NC(=O)Cc1nc2scc(-c3ccccc3)c2c(=O)[nH]1,15.1
3,O=C(Cn1nc(-c2ccc3c(c2)OCCO3)ccc1=O)Nc1ccc(N2CCOCC2)cc1,6.55
4,O=C(Nc1ccc2c(c1)OCO2)c1ccc(N2C(=O)c3ccccc3C2=O)cc1,-2.24
5,CCN(CC)C(=O)CSc1nnc(-n2nc(C)cc2C)c2ccccc12,11.2
6,O=C(c1cc2nc(-c3ccccc3)cc(C(F)(F)F)n2n1)N1CCOCC1,-10.5
7,CCOC(=O)C1(CCc2ccccc2)CCN(C(=O)CCn2cncn2)CC1,-34
8,CCOC(=O)N1CCN(C(c2cccnc2)c2ccc3cccnc3c2O)CC1 (centres unmarked),10.5
9,Cn1c(SCC#N)nnc1-c1ccc2c(c1)OCO2,18
10,C(=C\c1ccco1)/C=N/n1cnnc1,10.6
11,Nc1ccc(C(=O)Nc2ccco2)cc1,11.5
12,CCCn1c(=O)c2[nH]cnc2n(-c2ccc(Cl)cc2)c1=O,10.3
13,CCN1C(=O)C2(Nc3ccccc3-c3nc4ccccc4n32)c2cc(OC)ccc21 (centres unmarked),8.77
14,CCOc1ccc(CCNC(=O)c2oc3c(c2C)-c2[nH]ncc2CC3)cc1OCC,2.09
15,C=CCn1c(O)c(C(C)=NCc2ccc3c(c2)OCO3)c(=O)[nH]c1=O,5.62
16,Cc1c(C(=O)O)nn(-c2ccccc2)c(=O)c1C#N,6.47
17,Oc1ccc(-c2onc(C(F)(F)F)c2-c2cscn2)c(O)c1,9.18
18,O=C(O)CCC(=O)Nc1cc(C(F)(F)F)cc(C(F)(F)F)c1,17.3
19,CC(NC(=O)C(=O)c1cn(CC(=O)N2CCOCC2)c2ccccc12)c1ccccc1 (centres unmarked),8.13

row,Structure (SMILES),"hERG current change (%, negative = inhibition) at 1uM [%]"
1,COc1ccc(CCNC(=O)c2cnn3c(C(F)F)cc(C)nc23)cc1OC,5.69
2,Nc1cc(S(=O)(=O)N2CCOCC2)ccc1Oc1ccc(F)cc1,10.8
3,Cc1nnc(SCC2=C(C(=O)O)N3C(=O)[C@@H](NC(=O)Cn4cnnn4)[C@H]3SC2)s1,7.22
4,Cl.N[C@@H](Cc1c[nH]c2ccccc12)c1nnc(SCc2ccccc2)o1,8.51
5,O=C(/C=C/c1cccc([N+](=O)[O-])c1)OC1CCCCC1=O (centres unmarked),9.96
6,Nc1c2c(nc3sc4c(c13)CCCC4)CCCC2,-13.2
7,Cc1cccc(OCC(=O)Nc2ccc(S(=O)(=O)Nc3onc(C)c3C)cc2)c1C,10.3
8,FC(F)(F)c1cccc(-c2ccc(/C=N/Nc3nncc(-c4ccccc4)n3)o2)c1,6.55
9,CCCc1nc(SCC(=O)N2CCC(C)CC2)c2c(=O)n(C)c(=O)n(C)c2n1,-1.59
10,CCc1ccccc1NC(=O)COc1cccc2ccc(C)nc12,-18.1
11,Cl.O=C(CN1CCN(c2ncccn2)CC1)Nc1ccccc1-n1cccc1,5.61
12,O=C(CCl)NN1C(=O)NC2(CCCCC2)C1=O,4.73
13,O=C(c1ccc([N+](=O)[O-])cc1)N1CCOC12CCN(c1ncc(C(F)(F)F)cc1Cl)CC2,13.6
14,CCNc1nc(Cl)nc(-c2cn(-c3ccccc3)c3ccccc23)n1,7.92
15,CC1CCCN(CCCN2C(=O)C3C(C(=O)Nc4ccc(Cl)cc4)C4C=CC3(O4)C2C(=O)NC2CCCCC2)C1 (centres unmarked),7.24
16,CC1(C)Cc2c(c(-c3ccccc3)[nH]c(=O)c2C#N)CS1,14.5
17,Cn1ccnc1C1CCCCN1Cc1nc(Cc2cccc(C(F)(F)F)c2)no1 (centres unmarked),4.58
18,Oc1[nH]c(N=C2N=c3ccccc3=N2)c2ccccc12,10.5
19,Nc1ccn([C@@H]2O[C@H](CO)[C@@H](O)[C@@H]2O)c(=O)n1,1.86

row,Structure (SMILES),"hERG current change (%, negative = inhibition) at 1uM [%]"
1,Cc1ccc(-c2nn3nnnc3c3ccccc23)cc1C,-5.22
2,Nc1cnn(Cc2ccccc2F)c1,9.66
3,COc1ccc(-n2c(Cn3c(=O)sc4ccccc43)nnc2SCC(=O)N2CCCCC2)cc1,-0.0423
4,Cc1ccc(C)c(S(=O)(=O)N2C(=S)NC(=O)C2CC(C)C)c1 (centres unmarked),5.95
5,Cc1ccc(C)c2c1N(Cc1ccccc1)C(=O)C21OCCO1,11.9
6,CCOC(=O)C1=C(C)NC(C)=C(C(=O)OCC)C1C(=O)OC1CCOC1=O (centres unmarked),14
7,COc1ccc(S(=O)(=O)N2CCN(c3ncnc4c(-c5ccccc5)nsc34)CC2)cc1,-10.3
8,Cc1cccc(N(CC(=O)N=Nc2c(O)[nH]c3ccccc23)S(C)(=O)=O)c1C,-1.81
9,Cc1ccc(S(=O)(=O)N2CCN(C(=O)COC(=O)c3ccccc3Cl)CC2)c(C)c1,3.09
10,Cc1cc2[nH]c(=O)cc(-c3ccccc3)n2n1,13.4
11,O=C(O)CN1C(=O)CNC1=O,6.71
12,O=C1c2ccccc2S(=O)(=O)c2cc(C(=O)N3CCN(c4ccc(Cl)cn4)CC3)ccc21,-8.91
13,Cc1ccc(S(=O)(=O)N/N=C\c2ccc3c(c2)OCO3)cc1,6.04
14,COC(=O)C1C(O)=CC(=O)CC1C (centres unmarked),11.8
15,Cc1cn(C2OC(COC(=O)c3ccccc3)C(O)C2O)c(=O)[nH]c1=O (centres unmarked),1.18
16,COCCCN1C(=O)c2ccc(C(=O)Nc3ccccc3Cl)cc2C1=O,11.4
17,Cc1nn(Cc2ccccc2Cl)c(C)c1NC(=O)Cn1nc([N+](=O)[O-])c(Cl)c1C,14
18,CC1CCN(S(=O)(=O)N2CCC(C(=O)NCc3cccnc3)CC2)CC1,-14.9
